PubChem BioAssay AID686978 (National Center for Advancing Translational Sciences (NCATS), 2013)
Several values for one entry are separate records, joined by “and”; a condition that tells them apart may be missing. Equal values may be shown once. Hit rate of the full screen: of about 420,000 compounds, about 64,000 (15%) were called active. The inconclusive results got no clear call from the source; some entries with a clear call stand among them for comparison. Calls come from the whole dose curve; as a rule, active = well fitted inhibition curve with a large enough effect; inconclusive = small, poorly fitted or top-dose-only effect; inactive = flat fitted curve, though single readings scatter. Where the call is inconclusive, the potency comes from a doubtful curve fit.

Assay: qHTS for Inhibitors of human tyrosyl-DNA phosphodiesterase 1 (TDP1): qHTS in cells in absence of CPT; note: nearly all actives have a fitted effect of over 55% in size
Conditions: DT40 Tdp1-/- hTDP1 cells, no CPT, ATP luminescence, 48 h; series mostly up to 46.2 µM
Outline: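 Cells were dispensed at 400 per well, compounds added by pin tool, plates incubated ≥48 hr at 37 °C, then CellTiter-Glo added for 30 min at room temperature before luminescence reading. Line: DT40 Tdp1-/- complemented with hTDP1; camptothecin omitted.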
Potency is the fitted concentration of half-maximal effect; tags give direction and shape of the fitted curve.

| SMILES | Potency |
| --- | --- |
| O=[N+]([O-])c1ccc(/C=N/n2c(COc3ccccc3)n[nH]c2=S)cc1 | inactive |
| COc1ccc(NC(=O)c2sc3nc4c(cc3c2N)CN(Cc2ccccc2)CC4)c(OC)c1 | inconclusive: 16.4 µM [inhibitor, single point] |
| COc1ccc(C(C#N)CCC2OCCO2)cc1OC (centres undefined) | inactive |
| FC(F)(F)c1cc(-c2ccccc2)nc(NCc2cccs2)n1 | inconclusive: 29.1 µM [inhibitor, single point] |
| CCN(CC)CCNC(=O)c1ccc2c(c1)N(Cc1ccccc1)C(=O)c1ccccc1S2=O (centres undefined) | inconclusive: 29.1 µM [inhibitor, single point] |
| O=C1Cc2ccccc2C(=O)N1Nc1ccccc1 | inconclusive: 18.4 µM [inhibitor, single point] |
| Cc1ccc(CNC(=O)CS(=O)Cc2nc(-c3cccs3)oc2C)cc1 (centres undefined) | inconclusive: 9.2 µM [inhibitor, full curve, poor fit] |
| Cc1ccc2c(CNC3CCC(C)CC3)c(C(=O)O)n(Cc3cccc(F)c3)c2c1 (centres undefined) | inconclusive: 23.1 µM [inhibitor, single point] |
| Cc1cccc(C(=O)N(Cc2nc(-c3ccc(Cl)cc3)no2)C(C)C)c1 | inconclusive: 18.4 µM [inhibitor, single point] |
| Cc1cccc(C)c1NC(=O)CN(C)S(=O)(=O)c1ccc2c(c1)n(C)c(=O)c(=O)n2C | inactive |
| CCc1ccc(OCC(=O)NCC(c2ccc(OC)cc2)N2CCOCC2)cc1 (centres undefined) | inconclusive: 25.9 µM [inhibitor, single point] |
| Nc1cc(S(=O)(=O)N2CCCCC2)ccc1N1CCOCC1 | inconclusive: 18.4 µM [inhibitor, partial curve, poor fit] |
| C[C@@H]1CCCCCCCCC(=O)OCCN(C(=O)OC(C)(C)C)[C@H](C)CCCCCCCCC(=O)OCCN(C(=O)OC(C)(C)C)[C@H](C)CCCCCCCCC(=O)OCCN1C(=O)OC(C)(C)C | inactive |
| COc1ccc2cc(-c3[nH]ncc3CN3CCCCO3)ccc2c1 | inconclusive: 18.4 µM [inhibitor, single point] |
| CCN(CC)CCn1c2c(c(SCC(=O)Nc3ccc4c(c3)OCCO4)nc1=O)CCCC2 | inconclusive: 10.3 µM [inhibitor, partial curve] |
| COc1ccc(C(=O)Nc2ccc3nc(SCC(=O)N4CCOCC4)sc3c2)cc1 | inconclusive: 0.651 µM [inhibitor, full curve, poor fit] |
| CC1CCN(c2nc3ccc(C(=O)NCc4ccc(Cl)cc4)cc3s2)CC1 | inconclusive: 14.6 µM [inhibitor, single point] |
| COc1cc(NC(=O)c2cc3nc(-c4ccccc4)cc(-c4ccccc4)n3n2)c(OC)cc1Cl | inactive |
| CCOc1ccc(C(=O)NCC(c2cccs2)N2CCOCC2)cc1 (centres undefined) | inactive |
| CCOC(=O)C1=C(CNCCc2ccc(Cl)cc2)NC(=O)NC1c1ccc2c(c1)OCO2 (centres undefined) | inconclusive: 13 µM [inhibitor, partial curve, poor fit] |
| O=C(COC(=O)CCCN1C(=O)c2cccc3cccc(c23)C1=O)Nc1cccc(Br)c1 | inconclusive: 29.1 µM [inhibitor, single point] |
| CCOC(=O)N(C)C[C@@H]1OCc2ccccc2-c2c(n(C)c3ccccc23)C(=O)N([C@H](C)CO)C[C@H]1C | inconclusive: 29.1 µM [inhibitor, single point] |
| O=C1c2ccccc2-c2nnc(-c3ccc(O)cc3)cc21 | inconclusive: 29.1 µM [inhibitor, single point] |

| SMILES | Potency |
| --- | --- |
| COc1ccc(S(=O)(=O)NC(CC(=O)NCc2ccccc2OC)c2ccco2)cc1 (centres undefined) | inconclusive: 13 µM [inhibitor, single point] |
| COc1cc(OC)c2c(-c3cccc(/C=C/c4ccc(F)cc4)c3)cc(=O)oc2c1 | active: 18.4 µM |
| N#Cc1c(NC(=O)C2CC2)sc2c1CCCCC2 | inconclusive: 20.6 µM [inhibitor, single point] |
| Cc1cc(O)c(-c2cc(O)c(C)cc2O)cc1O | active: 3.26 µM |
| CCCCCC[C@@H]([C@@H](C)O)n1cnc2c(N)ncnc21 | inconclusive: 2.99 µM [inhibitor, full curve, poor fit] and inconclusive: 25.1 µM [inhibitor, single point] and inconclusive: 29.1 µM [inhibitor, single point] |
| COC(=O)c1sc(-c2cccs2)cc1NC(=O)/C=C/C(=O)O | active: 14.6 µM |
| COCc1ccc(-c2c(-c3ccc(OC)cc3)oc(=O)c3cc(OC)c(OC)cc23)cc1 | active: 23.1 µM |
| Cc1cc(C)nc(NC(=O)CSc2nccc(C)n2)n1 | inactive |
| CC[C@]1(c2cccc(C)c2)C(=O)N(C(=O)OC)N1C(=O)OC | active: 13 µM |
| Cc1ccc(C(=O)c2ccccc2C(=O)OCC(=O)N2CC(C)CC(C)C2)cc1 (centres undefined) | inconclusive: 29.1 µM [inhibitor, single point] |
| Cc1ccc(CCCOC(=O)C[N+]2(C)CCCC2)cc1 | inactive |
| COc1ccc(-c2cc3ccccc3n2CC(O)CN2CCOCC2)cc1 (centres undefined) | inconclusive: 15.8 µM [inhibitor, single point] |
| O=C(CSc1nnc(SCC(=O)c2ccco2)s1)c1ccco1 | active: 10.3 µM |
| O=c1ccc2ccc(O)cc2o1 | inactive |
| CCOc1ccc(-n2ccnc(SCC(=O)NCCc3ccccc3)c2=O)cc1 | inconclusive: 18.4 µM [inhibitor, partial curve] |
| CC1(C)CC(=O)c2c(oc3cc(O)c(O)cc23)C1 | inconclusive: 18.4 µM [inhibitor, single point] |
| Cc1ccc(C2C3=C(CCCC3=O)N=C3c4ccccc4C(=O)C32)cc1 (centres undefined) | inconclusive: 23.1 µM [inhibitor, single point] |
| O=C(CN1C(=O)c2ccccc2C1=O)NC1CCS(=O)(=O)C1 (centres undefined) | inactive |
| Cc1ccc(C)c(CSc2nc3ccncc3n2Cc2nc(-c3ccccc3Cl)oc2C)c1 | inconclusive: 16.4 µM [inhibitor, single point] |
| Cc1ccccc1S(=O)(=O)Oc1ccccc1C(=O)Oc1ccccc1 | inconclusive: 29.1 µM [inhibitor, single point] |
| Cc1cc(C)c(C(=O)NCc2nc(-c3cccc(NC(=O)C4CCCN(C)C4)c3)oc2C)[nH]1 (centres undefined) | inconclusive: 29.1 µM [inhibitor, single point] |
| CCc1nc2ccc(C(=O)NCc3ccc4c(c3)OCO4)cn2c1N(C)Cc1cccs1 | active: 16.4 µM |
| CC(C)c1nc(C(=O)N2CCOc3ccc(CN4CCN(c5ccccn5)CC4)cc3C2)cs1 | active: 14.6 µM |

| SMILES | Potency |
| --- | --- |
| CN(CC(=O)Nc1ccccc1Cl)C(=O)COC(=O)CCN1C(=O)C2CC=CCC2C1=O (centres undefined) | inactive |
| Cc1ccc2nc(-c3ccc(F)cc3)c(Cc3cccc(Cl)c3)n2c1 | active: 25.9 µM |
| CCOc1cccc(NC(=O)C2CCCN(S(=O)(=O)c3ccc(OC)cc3)C2)c1 (centres undefined) | active: 23.1 µM |
| COc1ccc(NC(=O)Nc2ccc3c(c2)C(=O)N([C@H](C)CO)C[C@H](C)[C@@H](CN(C)S(=O)(=O)c2ccccc2)O3)cc1 | inconclusive: 29.1 µM [inhibitor, single point] |
| Cn1c(SCC(=O)Nc2nc3c(s2)CCCC3)nnc1-c1ccccc1 | inactive |
| Cn1c(N2CCN(S(=O)(=O)c3ccc(Cl)cc3)CC2)nc2ccccc21 | inconclusive: 20.6 µM [inhibitor, single point] |
| OC(c1cccc(Cl)c1)c1ncc(-c2ccccc2Cl)[nH]1 (centres undefined) | inconclusive: 14.6 µM [inhibitor, single point] |
| COc1ccc(S(=O)(=O)N2CCCC(C(=O)Nc3ccc(NC(=O)c4ccccn4)cc3)C2)cc1 (centres undefined) | inconclusive: 23.1 µM [inhibitor, single point] |
| CCOC(=O)C[C@H]1c2ccc(C(F)(F)F)cc2S(=O)(=O)N1Cc1ccccc1 | inactive and inconclusive: 22.4 µM [inhibitor, single point] |
| c1ccc(-c2c3ccccc3nc3[nH]c4ccccc4c23)cc1 | inconclusive: 29.1 µM [inhibitor, single point] |
| Cc1ccc(-c2nn(-c3ccccc3)cc2C(=O)Nc2cccc(S(=O)(=O)NC3=NCCC3)c2)cc1 | active: 0.206 µM |
| C=CCC(C#Cc1ccccc1)N(C)C (centres undefined) | inactive |
| CCCC(=O)Nc1ccccc1-c1nnn(CC(=O)Nc2ccc(OCC)cc2)n1 | active: 20.6 µM |
| CCCCCCn1c(=O)[nH]c2nc3cc(N)ccc3nc2c1=O | inconclusive: 25.9 µM [inhibitor, single point] |
| CC(NC(=O)CSc1n[nH]c(-c2ccccc2)n1)c1nc2ccccc2n1C (centres undefined) | inactive |
| CC1CCCCN1C(=S)NC(=O)c1cc(Br)ccc1Cl (centres undefined) | inconclusive: 29.1 µM [inhibitor, single point] |
| CCC1CCCCN1C(=O)Cn1c(=O)n(CC2CCC(C(=O)NC)CC2)c(=O)c2sccc21 (centres undefined) | inactive |
| Cc1cc(C)c(S(=O)(=O)NCCCn2ccnc2)c(C)c1 | inconclusive: 14.6 µM [inhibitor, single point] |
| CN=Cc1c(NC)nc2c(C)cccn2c1=O | inactive |
| CCOc1ncccc1C(=O)NCc1ccc(OC)c(OC)c1 | inconclusive: 0.0065 µM [inhibitor, full curve, poor fit] |
| CCCCc1ccc(Nc2ncnc3c2cnn3-c2ccc(C)cc2)cc1 | inactive |
| COC(=O)c1cc(CSc2nnc(-c3ccccc3)c(-c3ccccc3)n2)oc1C | active: 20.6 µM |
| Cn1c(=O)c2sccc2n2c(CCC(=O)NCc3ccccc3)nnc12 | inactive |
